Laboratory results published in PubChem BioAssay AID624296 (National Center for Advancing Translational Sciences (NCATS), 2012).
In all, about 350,000 compounds went through this assay and about 9,900 (2.8%) were called active. Inconclusive means that the source gave no clear call. Such entries were picked first, then a sample of the others. Calls come from the whole dose curve; as a rule, active = well fitted activation curve with a large enough effect; inconclusive = small, poorly fitted or top-dose-only effect; inactive = no such curve, though single readings can be large or run the other way. Potencies of inconclusive entries are left out as doubtful fits.

assay: A quantitative high throughput screen for small molecules that induce DNA re-replication in MCF 10a normal breast cells.; note: nearly all actives have a fitted effect of over 50% in size; for activity, positive = re-replication: % of control where 0% means no effect; conditions: MCF 10A DNA re-replication, Hoechst nuclear intensity, 48 h; activity, positive = re-replication: at 46.1 µM (top of the series)
Potency is the fitted concentration of half-maximal effect; tags give direction and shape of the fitted curve.

Row | SMILES | activity, positive = re-replication | Potency
1 | C=CC[C@@H](CC(=O)N(CCO)Cc1ccccc1)C(=O)N[C@H](COC(=O)[C@@H](CC=C)CC(=O)OC(C)(C)C)c1ccccc1 | inactive: -0.531% | –
2 | O=C(Cc1ccc(Br)cc1)NCCc1ccc(Cl)cc1Cl | inactive: 22.3% | –
3 | CN(CCOc1ccccc1)CC(=O)Nc1cccc(Br)c1 | – | inconclusive [activator, partial curve, poor fit]
4 | CC(C)(c1ccc(O)c([N+](=O)[O-])c1)c1ccc(O)c([N+](=O)[O-])c1 | – | inconclusive [activator, single point]
5 | CCOC(=O)c1nn(-c2cccc(OC)c2)c(-c2ccccc2)c1C(=O)c1ccccc1 | – | inconclusive [activator, partial curve, poor fit]
6 | CC(=O)n1cc(/C=N/NC(=O)c2ccccc2Cl)c2ccccc21 | inactive: -5.73% | –
7 | Cc1cc[n+](CC(=O)Nc2cc(C(F)(F)F)ccc2Cl)cc1 | – | active: 23.1 µM
8 | O=C(CN1CCN(c2ccc(F)cc2)CC1)NCc1ccc(Cl)cc1 | inactive: 2.3% | –
9 | COc1ccc(NC(=O)CN(C)C2CCCCC2)c([N+](=O)[O-])c1 | – | inconclusive [activator, single point]
10 | O=C(c1ccc(S(=O)(=O)Nc2cccc(C(F)(F)F)c2)cc1)N1CCN(c2ccccc2O)CC1 | – | inconclusive [activator, single point]
11 | CCC(C(=O)NC1CCCCC1)n1c(SCc2cccc(C)c2)nc2ccncc21 (stereo not given) | – | inconclusive [activator, full curve, poor fit]
12 | COc1cc(/C=N/OCC(=O)NC2CCCCC2)ccc1OCc1ccccc1 | – | inconclusive [activator, single point]
13 | CN1C(=S)SC(C)(C)C1N(O)C(=O)Nc1ccc(Cl)cc1 (stereo not given) | inactive: -3.65% | –
14 | Cc1ccc(-n2nnnc2SCC(=O)NC2CCCc3ccccc32)c(C)c1 (stereo not given) | – | inconclusive [activator, partial curve]
15 | COc1ccccc1C(=O)NCCC(=O)NNC(=O)c1ccccc1O | – | inconclusive [activator, partial curve, poor fit]
16 | O=C(CNC(=O)c1ccc2c(c1)OCO2)Nc1cccc(Br)c1 | – | inconclusive [activator, single point]
17 | COc1cccc(/C=C/C(=O)OCC(=O)Nc2ccccc2Sc2ccccc2)c1 | – | inconclusive [activator, single point]
18 | Cc1cc2nc(-c3ccccc3)cc(=O)n2[nH]1 | inactive: 1.25% | –
19 | COc1cccc(N2CCN(c3ccc4nnc(CCC(=O)Nc5ccc(OC)c(OC)c5)n4n3)CC2)c1 | inactive: 4.96% | –
20 | O=C(CCCN1C(=O)c2cccc3cccc(c23)C1=O)N1CCN(c2ccccc2O)CC1 | – | inconclusive [activator, single point]
21 | O=C(NC1CC1)C1=C[C@H](c2ccc(C(F)(F)F)cc2)C[C@H](OCc2ccc(CO)cc2)O1 | – | inconclusive [activator, single point]
22 | Cc1ccc(O)c(C(=O)C=Cc2ccccc2)c1 | – | inconclusive [activator, single point]
23 | OCc1ccccc1OCCCOc1cccc2cccnc12 | – | inconclusive [activator, single point]

Row | SMILES | activity, positive = re-replication | Potency
24 | Cc1nn(-c2ccccc2)c(C)c1C(=O)OCC(=O)N1c2ccccc2NC(=O)C1(C)C | inactive: 28.9% | –
25 | CCc1ccc(NC(=O)N(CCN2CCOCC2)Cc2ccc3c(c2)CCCN3CC)cc1 | inactive: 17.8% | –
26 | Cc1ccc(/C=C/C(=O)Nc2ccc(Oc3ccccc3)cc2)o1 | – | inconclusive [activator, single point]
27 | Oc1cc(-c2ccncc2)cc2cccnc12 | – | inconclusive [activator, single point]
28 | COc1cc(C(=O)Nc2ccc3c(c2)N(C(=O)CCN(C)C)c2ccccc2CC3)cc(OC)c1OC | – | active: 13 µM
29 | O=C(CN1CCc2ccccc2C1)Nc1ccccc1F | – | inconclusive [activator, single point]
30 | Cn1c(=NC(=O)c2cccc([N+](=O)[O-])c2)sc2ccccc21 | inactive: -1.6% | –
31 | Cc1ccc(NC(=O)c2cc(Cl)ccc2[N+](=O)[O-])cc1C | inactive: 0.478% | –
32 | Fc1ccc(NC(=S)N/N=C/c2ccc(F)c(F)c2)cc1 | inactive: -3.16% | –
33 | COCCCNC(=O)C(=O)Nc1ccc2c(c1)N(S(=O)(=O)c1cccs1)CCC2 | – | active: 1.3 µM
34 | COc1ccc(/C(C)=N/NC(=O)c2ccccc2OCc2ccccc2)c(OC)c1 | inactive: -2.61% | –
35 | CCOC(=O)c1sc(NN=C(C(=O)OC)C(=O)OC)c(C(=O)OCC)c1C | – | inconclusive [activator, partial curve, poor fit]
36 | Cc1ccc(OCc2cc(C(=O)N(C)Cc3cc(C4CC4)n[nH]3)no2)cc1C | – | inconclusive [activator, partial curve, poor fit]
37 | Nc1nc(-c2ccc(Oc3ccccc3)cc2)c(CC(=O)O)s1 | – | inconclusive [activator, single point]
38 | CCN(CC)c1ccc2c(O)cc(=O)oc2c1 | inactive: 8.7% | –
39 | COC(=O)c1ccc(CNC(=O)Cn2cc(C)c(=O)[nH]c2=O)cc1 | inactive: -0.64% | –
40 | CC1CN(c2nc3ccccn3c(=O)c2C=O)CC(C)O1 (stereo not given) | – | inconclusive [activator, partial curve, poor fit]
41 | CC(C)(C)NC(=O)CN(C(=O)c1snc(C(=O)NC2CCCCC2)c1N)c1ccccc1F | – | inconclusive [activator, full curve]
42 | O=C1C=C(c2cc(C(F)(F)F)cc(C(F)(F)F)c2)C[C@@H](c2ccc3c(c2)OCO3)C1 | inactive: -4.9% | –
43 | Fc1ccc(CNC(=S)Nc2ccc(Cl)cc2)cc1 | – | inconclusive [activator, single point]
44 | CSc1ccc(S(=O)(=O)NCC(=O)OCC(=O)NCc2cccs2)cc1[N+](=O)[O-] | – | inconclusive [activator, single point]
45 | CC1(c2nnc(Cc3ccccc3)o2)CC(c2ccc(OC(F)(F)F)cc2)=NO1 (stereo not given) | – | inconclusive [activator, single point]
